Reference: the RNAGym collection of RNA variant scans (doi:10.1101/gad.245936.114)
Variants at the floor of the assay are shown more often than the library holds them.

B1: tRNA (parent)
chain: CUCUCGGUAGCCAAGUUGGUUUAAGGCGCAAGACUUUAAUUUAUCACUACGAAAUCUUGAGAUCGGGCGUUCGACUCGCCCCCGGGAGAUUUUUUCCUCGAGCAA

Variants of: B1
Assay: nonsense suppression (GFP-seq) (ratio to wild type); higher = more function; SUP4oc tRNA, yeast GFP reporter sort-seq
Method in brief: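 Sorted GFP/RFP bins of yeast were each Illumina-sequenced with a phred ≥30 cutoff; the cells held a genome-integrated ochre-suppressor tRNA variant from a library with ~3% random mutations, a galactose-driven GFP ochre reporter, and RFP. Culture was in raffinose/galactose medium containing 80 mg/L adenine. Nonsense suppression, termed GFPSEQ, is the median GFP/RFP of the bins weighted by each variant's estimated cell share per bin, relative to the unmutated parent tRNA, for variants reaching ≥100 reads and ≥30 cells.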

Nonsense suppression, ≤ 0.026:
CUCUCGGUAGCCAAGUUGGUUUAAGGCGCAAGACUUUAAUUUAUCACUACGAAUUCUUGAGAUCGGGCGUUCGACUCGCCCGGGGGAGAUUUUUUCCUCGAGCAA [A54U C82G C83G]
CUCUCGGUAGCCAAGUUGGUUUAAGGCGCAAGACUUUAAUUUAUCACUACGAAGUCUUGAGAUCAGGCGUUCGACUCGCCCCCGGGAGAUUUUUUCCUCGAGCAA [A54G G65A]
CUCUCGGUAGCCAAGUUGGUUUAAGGCGCAAGACUUUAAUUUAUCACUACGAAGUCUUGAGAUCCGGCGUUCGACUCGCCCCCGGGAGAUUUUUUCCUCGAGCAA [A54G G65C]
CUCUCGGUAGCCAAGUUGGUUUAAGGCGCAAGACUUUAAUUUAUCACUACGAAGUCUAGAGAUCGGGCGUUCGACUCGACCCCGGGAGAUUUUUUCCUCGAGCAA [A54G U58A C79A]
CUCUCGGUAGCCAAGUUGGUUUAAGGCGCAAGACUUUAAUUUAUCACUACGAAGUCUUGAGAUCGGGCGUUCGACUCGGCCCCGGGAGGUUUUUUCCUCGAGCAA [A54G C79G A89G]
CUCUCGGUAGCCAAGUUGGUUUAAGGCGCAAGACUUUAAUUUAUCACUACGAAGUCUUGAGAUCGAGGGUUCGACUCGCCCCCGGGAGAUUUUUUCCUCGAGCAA [A54G G66A C68G]
CUCUCGGUAGCCAAGUUGGUUUAAGGCGCAAGACUUUAAUUUAUCACUACGAAGUCUUGAGAUCGGGCUUUCGACUUGCCCCCGGGAGAUUUUUUCCUCGAGCAA [A54G G69U C77U]
CUCUCGGUAGCCAAGUUGGUUUAAGGCGCAAGACUUUAAUUUAUCACUACGAAGUCUUGAGAUCGGGCGUUCGACUCGCCCCCCGGAGAUUUUUUCCUCGAGCAA [A54G G84C]
CUCUCGGUAGCCAAGUUGGUUUAAGGCGCAAGACUUUAAUUUAUCACUACGAAUUCUUGAGGUCGGGCGUUCGUCUCGCCCCCGGGAGAUUUUUUCCUCGAGCAA [A54U A62G A74U]
CUCUCGGUAGCCAAGUUGGUUUAAGGCGCAAGACUUUAAUUUAUCACUACGAAUUCUUGAGAUCGGGCGUUCGAAUCGCCCCCGGCAGAUUUUUUCCUCGAGCAA [A54U C75A G86C]
CUCUCGGUAGCCAAGUUGGUUUAAGGCGCAAGACUUUAAUUUAUCACUACGAAGUCUUGAGAUCGAGCGUUCGACUCGCCCCCGGGCGAUUUUUUCCUCGAGCAA [A54G G66A A87C]
CUCUCGGUAGCCAAGUUGGUUUAAGGCGCAAGACUUUAAUUUAUCACUACGAAUUCUUGAGAUCGGGCGUUCGACUCGCCCCGGGGAGAUUUUUUCCUCGAGCAA [A54U C83G]
CUCUCGGUAGCCAAGUUGGUUUAAGGCGCAAGACUUUAAUUUAUCACUACGAAGUCAUGAGAUCGGGCGUUCAACUCGCCCCCGGGAGAUUUUUUCCUCGAGCAA [A54G U57A G73A]
CUCUCGGUAGCCAAGUUGGUUUAAGGCGCAAGACUUUAAUUUAUCACUACGAAGUCUUGAGAUCGGUCGUUCGACUCGCCCCCGGGAGAUUUUUUCCUCGAGCAA [A54G G67U]
CUCUCGGUAGCCAAGUUGGUUUAAGGCGCAAGACUUUAAUUUAUCACUACGAAGUCUUGAGAUCGGCCGUUCGACUCGCCCCCGGGAGAUUUUUUCCUCGAGCAA [A54G G67C]
CUCUCGGUAGCCAAGUUGGUUUAAGGCGCAAGACUUUAAUUUAUCACUACGAAGUCUUGAGAUCGGGCGUUCGACUCGCCACCGGGAGAUUUUUUCCUCGAGCAA [A54G C81A]
CUCUCGGUAGCCAAGUUGGUUUAAGGCGCAAGACUUUAAUUUAUCACUACGAAUUCUUGAGAUCGGGCGUUCGACUCGCACCCGGGAGAUUUUUUCCUCGAGCAA [A54U C80A]
CUCUCGGUAGCCAAGUUGGUUUAAGGCGCAAGACUUUAAUUUAUCACUACGAAUUCUUGAGAUCGGGCGUUCGACUCGCGCCCGGGAGAUUUUUUCCUCGAGCAA [A54U C80G]
CUCUCGGUAGCCAAGUUGGUUUAAGGCGCAAGACUUUAAUUUAUCACUACGAAGUCUUGAUAUCGGGCGUUCGACUCGCCCCCGGGAGAUUUUUUCCUCGAGCAA [A54G G61U]
CUCUCGGUAGCCAAGUUGGUUUAAGGCGCAAGACUUUAAUUUAUCACUACGAAGUCUUGAGAUCGGGCUUUCGACUCGCCCCCGGGAGAUUUUUUCCUCGAGCAA [A54G G69U]
CUCUCGGUAGCCAAGUUGGUUUAAGGCGCAAGACUUUAAUUUAUCACUACGAAUUAUUGAGAUCGGGCGUUCGACUCGCCCCCGGGAGAUUUUUUCCUCGAGCAA [A54U C56A]
CUCUCGGUAGCCAAGUUGGUUUAAGGCGCAAGACUUUAAUUUAUCACUACGAAGUCUUGAAAUCGGGCGUUCGACCGGCCCCCGGGAGAUUUUUUCCUCGAGCAA [A54G G61A U76C C77G]
CUCUCGGUAGCCAAGUUGGUUUAAGGCGCAAGACUUUAAUUUAUCACUACGAAGUCUUGAAAUCGGGCGUUCGACCUGCCCCCGGGAGAUUUUUUCCUCGAGCAA [A54G G61A U76C C77U]
CUCUCGGUAGCCAAGUUGGUUUAAGGCGCAAGACUUUAAUUUAUCACUACGAAUUAUUGAGAUCGGGCGUUUGACUCGCCCCCGGGAGAUUUUUUCCUCGAGCAA [A54U C56A C72U]
CUCUCGGUAGCCAAGUUGGUUUAAGGCGCAAGACUUUAAUUUAUCACUACGAAGUCUAGAGAACGGGCGUUCGACUCGCCCCCGGGAGAUUUUUUCCUCGAGCAA [A54G U58A U63A]
CUCUCGGUAGCCAAGUUGGUUUAAGGCGCAAGACUUUAAUUUAUCACUACGAAUUCUUGAGGUCCGGCGUUCGACUCGCCCCCGGGAGAUUUUUUCCUCGAGCAA [A54U A62G G65C]
CUCUCGGUAGCCAAGUUGGUUUAAGGCGCAAGACUUUAAUUUAUCACUACGAAUUGUUGAGAUCGGGCGUUAGACUCGCCCCCGGGAGAUUUUUUCCUCGAGCAA [A54U C56G C72A]
